According to PubChem BioAssay AID588855 (National Center for Advancing Translational Sciences (NCATS), 2011):
About 5,000 (1.2%) of roughly 410,000 compounds were called active. The shares of active, inactive and inconclusive entries below differ from those in the screen. Calls come from the whole dose curve; as a rule, active = well fitted inhibition curve with a large enough effect; inconclusive = small, poorly fitted or top-dose-only effect; inactive = no such curve, though single readings can be large or run the other way. Potencies beside an inconclusive call are fits to weak or partial responses and may not hold up.
Potency is the fitted concentration of half-maximal effect; tags give direction and shape of the fitted curve.

Test: qHTS for Inhibitors of TGF-b; note: nearly all actives have a fitted effect of over 65% in size
Conditions: HepG2 CAGA-GFP TGF-b/SMAD3 reporter, GFP fluorescence, 18 h, TGF-beta stimulated, 500 pg/mL final; series mostly up to 46.1 µM
In short: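 TGF-beta reporter screen: HEPG2 CAGA-GFP, 1% FBS, 500 pg/mL TGF-beta final, 18 h; per-cell GFP summed per well; curves fitted and categorized by class.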
For `CC1CN(C(=O)c2ccccc2Nc2ccc(SC(F)F)cc2)CC(C)O1` (configuration not stated), the Potency was inconclusive: 0.112 µM [inhibitor, full curve, poor fit]. With `CC(=O)N1c2ccc(S(=O)(=O)N3CCC(C(=O)NCCc4ccc(Cl)cc4)CC3)cc2CC1C` (configuration not stated) the Potency was inconclusive: 14.1 µM [inhibitor, partial curve, poor fit]. For `CC(C)C[C@@H](CO)N1CCN(Cc2cccnc2)CCC1=O`, the Potency was inconclusive: 35.5 µM [inhibitor, single point]. With `COc1ccc(CCC(C)NC(=O)Cc2ccc(OC)c(OC)c2)c(OC)c1` (configuration not stated) the Potency was “inactive”. In the case of `COc1ccc(/C=C/C(=O)c2cc(F)ccc2OC(=O)c2ccccc2C)cc1OC`, the Potency is reported as inconclusive: 1.26 µM [inhibitor, full curve, poor fit]. With `Cc1ccc(Nc2nnc(C3C(=O)N(C)C4(C)CC3c3cc(Br)ccc3O4)s2)cc1` (configuration not stated) the Potency was inconclusive: 35.5 µM [inhibitor, single point]. In the case of `CCCCCCn1c(=O)n2n(c1=O)C[C@]1(OC(=O)NCC3CCCCC3)CN(S(=O)(=O)c3ccc(C)cc3)C[C@]1(O)C2`, the Potency is reported as inconclusive: 35.5 µM [inhibitor, single point]. With `Cc1cc(Nc2cccc(Br)c2)c2ccccc2n1` the Potency was inconclusive: 15.8 µM [inhibitor, single point]. For `O=C1OCCN1C(=O)[C@H]1[C@H](c2ccc(Cl)cc2)C(c2cccc(Cl)c2)=NN1c1ccc(Br)cc1`, the Potency was inconclusive: 11.2 µM [inhibitor, partial curve, poor fit]. In the case of `COc1cc(C(=O)NCCCNc2ccc([N+](=O)[O-])cc2)cc(OC)c1OC`, the Potency is reported as inconclusive: 10 µM [inhibitor, partial curve, poor fit]. In the case of `COc1ccc(C(=O)Nc2nnc(-c3cccs3)s2)cc1`, the Potency is reported as “inactive”. In the case of `Cc1ccccc1C(=O)NC(=S)Nc1ccc(Oc2ccc(Cl)cc2)cc1`, the Potency is reported as inconclusive: 17.8 µM [inhibitor, single point]. In the case of `CN(Cc1ccccc1)C(=O)c1[nH]cnc1C(=O)Nc1ccccc1`, the Potency is reported as inconclusive: 3.98 µM [inhibitor, full curve, poor fit]. For `Oc1ccc(O)c(C=NNC(=S)NC2CC3CC2C2C=CCC32)c1` (configuration not stated), the Potency was inconclusive: 20 µM [inhibitor, single point]. In the case of `CCCOc1cccc(C2C(C(=O)c3cccs3)=C(O)C(=O)N2Cc2cccnc2)c1` (configuration not stated), the Potency is reported as “inactive”. In the case of `Cc1ccc(/C=N/NC(=O)c2c(C)nc3ccc(Br)cn23)cc1`, the Potency is reported as inconclusive: 5.01 µM [inhibitor, single point]. With `O=C(/C=C/c1ccccc1O)c1ccco1` the Potency was inconclusive: 31.6 µM [inhibitor, single point].
